From the supplement of paper PMC8728848
The other results are listed elsewhere or left out.

Columns and labels:
Assay in all cases: glycan array binding signal (z-score within array); higher = stronger binding
Conditions in all cases: glycan notation: IUPAC condensed, linker removed
Gal(b1-2)Gal = target: Gal(b1-2)Gal
Method in brief: (§1)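 Arrays were curated from the Consortium for Functional Glycomics database, 3228 in total, and kept only where the protein sequence was available. Binding is expressed as a within-array Z-score. This score was averaged across arrays of the same protein sequence at different concentrations or buffers and across linkers, and negative values can be read as non-binding.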

Gal(b1-3)Gal = target: Gal(b1-3)Gal
Method in brief: as §1

Gal(b1-3)Gal(b1-4)GlcNAc = target: Gal(b1-3)Gal(b1-4)GlcNAc
Method in brief: as §1

Gal(b1-3)GalNAc = target: Gal(b1-3)GalNAc
Method in brief: as §1

[1] = target: Gal(b1-3)GalNAc(a1-3)[Fuc(a1-2)]Gal(b1-4)Glc
Method in brief: as §1

[2] = target: Gal(b1-3)GalNAc(a1-3)[Fuc(a1-2)]Gal(b1-4)GlcNAc
Method in brief: as §1

Gal(b1-3)GalNAc(b1-3)Gal = target: Gal(b1-3)GalNAc(b1-3)Gal
Method in brief: as §1

[3] = target: Gal(b1-3)GalNAc(b1-3)Gal(a1-4)Gal(b1-4)Glc
Method in brief: as §1

[4] = target: Gal(b1-3)GalNAc(b1-4)Gal(b1-4)Glc
Method in brief: as §1

[5] = target: Gal(b1-3)GalNAc(b1-4)[Neu5Ac(a2-3)]Gal(b1-4)Glc
Method in brief: as §1

Gal(b1-3)GlcNAc = target: Gal(b1-3)GlcNAc
Method in brief: as §1

[6] = target: Gal(b1-3)GlcNAc(a1-3)Gal(b1-4)GlcNAc
Method in brief: as §1

[7] = target: Gal(b1-3)GlcNAc(a1-6)Gal(b1-4)GlcNAc
Method in brief: as §1

Gal(b1-3)GlcNAc(b1-2)Man = target: Gal(b1-3)GlcNAc(b1-2)Man
Method in brief: as §1

[8] = target: Gal(b1-3)GlcNAc(b1-2)Man(a1-3)[Gal(b1-3)GlcNAc(b1-2)Man(a1-6)]Man(b1-4)GlcNAc(b1-4)GlcNAc
Method in brief: as §1

[9] = target: Gal(b1-3)GlcNAc(b1-2)Man(a1-3)[Gal(b1-3)GlcNAc(b1-2)Man(a1-6)]Man(b1-4)GlcNAc(b1-4)[Fuc(a1-6)]GlcNAc
Method in brief: as §1

[10] = target: Gal(b1-3)GlcNAc(b1-2)Man(a1-3)[GlcNAc(b1-4)][Gal(b1-3)GlcNAc(b1-2)Man(a1-6)]Man(b1-4)GlcNAc(b1-4)GlcNAc
Method in brief: as §1

[11] = target: Gal(b1-3)GlcNAc(b1-2)[Gal(b1-3)GlcNAc(b1-6)]Man(a1-6)[Gal(b1-3)GlcNAc(b1-2)Man(a1-3)]Man(b1-4)GlcNAc(b1-4)GlcNAc
Method in brief: as §1

[12] = target: Gal(b1-3)GlcNAc(b1-3)Gal(b1-3)GlcNAc
Method in brief: as §1

[13] = target: Gal(b1-3)GlcNAc(b1-3)Gal(b1-4)Glc
Method in brief: as §1

[14] = target: Gal(b1-3)GlcNAc(b1-3)Gal(b1-4)GlcNAc
Method in brief: as §1

[15] = target: Gal(b1-3)GlcNAc(b1-3)Gal(b1-4)GlcNAc(b1-2)Man(a1-3)[Gal(b1-3)GlcNAc(b1-3)Gal(b1-4)GlcNAc(b1-2)Man(a1-6)]Man(b1-4)GlcNAc(b1-4)GlcNAc
Method in brief: as §1

[16] = target: Gal(b1-3)GlcNAc(b1-3)Gal(b1-4)GlcNAc(b1-2)[Gal(b1-3)GlcNAc(b1-3)Gal(b1-4)GlcNAc(b1-6)]Man(a1-6)[Gal(b1-3)GlcNAc(b1-3)Gal(b1-4)GlcNAc(b1-2)Man(a1-3)]Man(b1-4)GlcNAc(b1-4)[Fuc(a1-6)]GlcNAc
Method in brief: as §1

[17] = target: Gal(b1-3)GlcNAc(b1-3)Gal(b1-4)GlcNAc(b1-3)Gal(b1-4)GlcNAc(b1-2)[Gal(b1-3)GlcNAc(b1-3)Gal(b1-4)GlcNAc(b1-3)Gal(b1-4)GlcNAc(b1-6)]Man(a1-6)[Gal(b1-3)GlcNAc(b1-3)Gal(b1-4)GlcNAc(b1-3)Gal(b1-4)GlcNAc(b1-2)Man(a1-3)]Man(b1-4)GlcNAc(b1-4)[Fuc(a1-6)]GlcNAc
Method in brief: as §1

[18] = target: Gal(b1-3)GlcNAc(b1-3)Gal(b1-4)GlcNAc(b1-6)[Gal(b1-3)GlcNAc(b1-3)]Gal(b1-4)Glc
Method in brief: as §1

[19] = target: Gal(b1-3)GlcNAc(b1-3)Gal(b1-4)[Fuc(a1-3)]GlcNAc
Method in brief: as §1

[20] = target: Gal(b1-3)GlcNAc(b1-3)Gal(b1-4)[Fuc(a1-3)]GlcNAc(b1-6)[Gal(b1-3)GlcNAc(b1-3)]Gal(b1-4)Glc
Method in brief: as §1

[21] = target: Gal(b1-3)GlcNAc(b1-3)GalNAc
Method in brief: as §1

[22] = target: Gal(b1-3)GlcNAc(b1-6)Gal(b1-4)GlcNAc
Method in brief: as §1

[23] = target: Gal(b1-3)GlcNAc(b1-6)GalNAc
Method in brief: as §1

[24] = target: Gal(b1-3)GlcNAc(b1-6)[Gal(b1-3)]GalNAc
Method in brief: as §1

Gal(b1-3)GlcNAc6S = target: Gal(b1-3)GlcNAc6S
Method in brief: as §1

[25] = target: Gal(b1-3)[Fuc(a1-4)]GlcNAc
Method in brief: as §1

[26] = target: Gal(b1-3)[Fuc(a1-4)]GlcNAc(b1-2)Man
Method in brief: as §1

[27] = target: Gal(b1-3)[Fuc(a1-4)]GlcNAc(b1-2)Man(a1-3)[Gal(b1-3)[Fuc(a1-4)]GlcNAc(b1-2)Man(a1-6)]Man(b1-4)GlcNAc(b1-4)[Fuc(a1-6)]GlcNAc
Method in brief: as §1

[28] = target: Gal(b1-3)[Fuc(a1-4)]GlcNAc(b1-3)Gal(b1-3)[Fuc(a1-4)]GlcNAc
Method in brief: as §1

[29] = target: Gal(b1-3)[Fuc(a1-4)]GlcNAc(b1-3)Gal(b1-4)[Fuc(a1-3)]GlcNAc
Method in brief: as §1

[30] = target: Gal(b1-3)[Fuc(a1-4)]GlcNAc(b1-6)GalNAc
Method in brief: as §1

[31] = target: Gal(b1-3)[GlcNAc(b1-6)]GalNAc
Method in brief: as §1

[32] = target: Gal(b1-3)[Neu5Ac(a2-6)]GalNAc
Method in brief: as §1

[33] = target: Gal(b1-3)[Neu5Ac(a2-6)]GlcNAc(b1-4)Gal(b1-4)Glc
Method in brief: as §1

[34] = target: Gal(b1-3)[Neu5Ac(b2-6)]GalNAc
Method in brief: as §1

Gal(b1-4)Gal = target: Gal(b1-4)Gal
Method in brief: as §1

[35] = target: Gal(b1-4)GalNAc(a1-3)[Fuc(a1-2)]Gal(b1-4)GlcNAc
Method in brief: as §1

[36] = target: Gal(b1-4)GalNAc(b1-3)[Fuc(a1-2)]Gal(b1-4)GlcNAc
Method in brief: as §1

B1: FimA-N1 (Actinomyces oris) (protein)
chain: MHHHHHHSSGVDLGTENLYFQSNATETPNYGNIKTDATGSLVIHKHLTGGGKDIGTPTGTAQNADDKGPAVEGVVFTAYPITDINLKDPAGWDTISNLSRTGVPDSACANPAAPTLGAHQFGTPKVSPATTKEGLATITEMPVQAYLVCETTTPGDIVQKAKPFVVTIPHPNTAAGADGQWIYDVNVYPKNEAIDVDKTIQAQK
- glycan array binding signal (z-score) (Gal(b1-2)Gal): 1.45
- glycan array binding signal (z-score) (Gal(b1-3)Gal): -0.179
- glycan array binding signal (z-score) (Gal(b1-3)Gal(b1-4)GlcNAc): -0.145
- glycan array binding signal (z-score) (Gal(b1-3)GalNAc): -0.2
- glycan array binding signal (z-score) [1]: -0.218
- glycan array binding signal (z-score) [2]: -0.448
- glycan array binding signal (z-score) (Gal(b1-3)GalNAc(b1-3)Gal): -0.35
- glycan array binding signal (z-score) [3]: 0.526
- glycan array binding signal (z-score) [4]: -0.167
- glycan array binding signal (z-score) [5]: -0.373
- glycan array binding signal (z-score) (Gal(b1-3)GlcNAc): -0.36
- glycan array binding signal (z-score) [6]: -0.331
- glycan array binding signal (z-score) [7]: -0.128
- glycan array binding signal (z-score) (Gal(b1-3)GlcNAc(b1-2)Man): -0.223
- glycan array binding signal (z-score) [8]: -0.246
- glycan array binding signal (z-score) [9]: -0.504
- glycan array binding signal (z-score) [10]: 0.813
- glycan array binding signal (z-score) [11]: 3.13
- glycan array binding signal (z-score) [12]: -0.03
- glycan array binding signal (z-score) [13]: -0.392
- glycan array binding signal (z-score) [14]: -0.233
- glycan array binding signal (z-score) [15]: -0.401
- glycan array binding signal (z-score) [16]: -0.054
- glycan array binding signal (z-score) [17]: -0.226
- glycan array binding signal (z-score) [18]: -0.142
- glycan array binding signal (z-score) [19]: -0.121
- glycan array binding signal (z-score) [20]: -0.133
- glycan array binding signal (z-score) [21]: -0.102
- glycan array binding signal (z-score) [22]: -0.385
- glycan array binding signal (z-score) [23]: -0.346
- glycan array binding signal (z-score) [24]: -0.153
- glycan array binding signal (z-score) (Gal(b1-3)GlcNAc6S): 0.102
- glycan array binding signal (z-score) [25]: -0.166
- glycan array binding signal (z-score) [26]: -0.442
- glycan array binding signal (z-score) [27]: 0.322
- glycan array binding signal (z-score) [28]: -0.597
- glycan array binding signal (z-score) [29]: -0.268
- glycan array binding signal (z-score) [30]: -0.024
- glycan array binding signal (z-score) [31]: -0.29
- glycan array binding signal (z-score) [32]: -0.468
- glycan array binding signal (z-score) [33]: -0.004
- glycan array binding signal (z-score) [34]: -0.375
- glycan array binding signal (z-score) (Gal(b1-4)Gal): -0.308
- glycan array binding signal (z-score) [35]: -0.457
- glycan array binding signal (z-score) [36]: -0.306
